# Source: PubChem BioAssay (Tox21)
# Where “and” joins values, the source holds several entries; their conditions need not be identical. Equal entries are not always repeated. The shares of active, inactive and inconclusive entries below differ from those in the screen. For part of these data: Potencies beside an inconclusive call are fits to weak or partial responses and may not hold up. Calls of active or inactive are those of the source. Unless noted, the call rests on the fitted dose curve; in most records, active means well fitted curve in the direction sought with a large enough effect in the repeat runs; inconclusive means weak or mixed curves; inactive means no such curve, though single readings can be large; an effect the other way counts as inactive or inconclusive.
# Tests used:
# [1] = qHTS assay to identify small molecule agonists of the progesterone receptor (PR) signaling pathway - cell viability counter screen (AID 1346799; calls by dose curve; further: nearly all actives have a fitted effect of over 45% in size; further: potency means the concentration at half of the fitted maximal effect; on activity change, negative = cytotoxicity: on the % scale 0 is the no-effect control and ±100 the full control effect)
# Procedure, shortened: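 In parallel with the beta-lactamase readout, cytotoxicity toward PR-UAS-bla HEK293T cells was measured by CellTiter-Glo luminescence following 16 hr compound incubation in 2% charcoal-stripped FBS medium.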
# [2] = Caspase-3/7 induction in CHO-K1 cells by small molecules, qHTS cell viability counter screen (AID 1346979); conditions: CellTiter-Fluor fluorescence, 17 h; activity change, negative = cytotoxicity: at 92.4 µM (top of the series); further: nearly all actives have a fitted effect of over 35% in size; further: potency means the concentration at half of the fitted maximal effect; on activity change, negative = cytotoxicity: on the % scale 0 is the no-effect control and ±100 the full control effect
# Procedure, shortened: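 Viability readout by fluorescence (CellTiter-Fluor) on wild-type CHO-K1 cells exposed for 16hr at 37C and 5% CO2 to compounds delivered in DMSO; reagent incubated 1hr before reading.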
# [3] = Caspase-3/7 induction in HepG2 cells by small molecules, qHTS assay (AID 1346978); further: nearly all actives have a fitted effect of over 15% in size; further: potency means the concentration at half of the fitted maximal effect
# Procedure, shortened: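 Wild-type HepG2 cells (2,000/well) were settled 5 h at 37 C, 5% CO2, then exposed to compounds in DMSO for 17 h. Caspase-3/7 activity was read by luminescence 30 min after adding Caspase-Glo 3/7 reagent at room temperature.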
# [4] = target: Cytochrome P450 2D6 (Homo sapiens) (UniProt P10635); assay: Cytochrome P450 Family 2 Subfamily D Member 6 (CYP2D6) small molecule antagonists: luciferase reporter qHTS assay (AID 1671196); further: potency means the concentration at half of the fitted maximal effect; nearly all actives have a fitted effect of over 50% in size
# Sequence of UniProt P10635 (P10635 whole entry, looked up): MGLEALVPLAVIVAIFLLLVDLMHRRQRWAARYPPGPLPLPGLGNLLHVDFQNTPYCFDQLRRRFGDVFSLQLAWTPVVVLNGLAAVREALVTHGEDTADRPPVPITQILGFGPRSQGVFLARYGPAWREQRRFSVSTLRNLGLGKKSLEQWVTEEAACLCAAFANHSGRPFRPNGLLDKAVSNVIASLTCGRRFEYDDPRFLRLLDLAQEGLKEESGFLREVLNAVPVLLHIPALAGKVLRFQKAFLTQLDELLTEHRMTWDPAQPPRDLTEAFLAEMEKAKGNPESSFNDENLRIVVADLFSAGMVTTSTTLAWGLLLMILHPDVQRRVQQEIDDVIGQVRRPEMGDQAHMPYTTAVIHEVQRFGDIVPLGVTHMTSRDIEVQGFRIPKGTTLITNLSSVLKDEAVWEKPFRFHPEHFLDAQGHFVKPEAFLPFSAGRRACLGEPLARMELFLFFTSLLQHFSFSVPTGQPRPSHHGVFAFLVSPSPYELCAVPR
# Procedure, shortened: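 Read-out is luminescence from luciferin formed by CYP2D6 turnover of a proluciferin substrate, recorded as relative luminescence units. Reactions ran 1 h at room temperature after NADPH regeneration solution was added.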
# [5] = target: Cytochrome P450 2C9 (Homo sapiens) (UniProt P11712); assay: Cytochrome P450 Family 2 Subfamily C Member 9 (CYP2C9) small molecule antagonists: luciferase reporter qHTS assay (AID 1671198); further: potency means the concentration at half of the fitted maximal effect; nearly all actives have a fitted effect of over 50% in size
# Sequence of UniProt P11712 (P11712 whole entry, looked up): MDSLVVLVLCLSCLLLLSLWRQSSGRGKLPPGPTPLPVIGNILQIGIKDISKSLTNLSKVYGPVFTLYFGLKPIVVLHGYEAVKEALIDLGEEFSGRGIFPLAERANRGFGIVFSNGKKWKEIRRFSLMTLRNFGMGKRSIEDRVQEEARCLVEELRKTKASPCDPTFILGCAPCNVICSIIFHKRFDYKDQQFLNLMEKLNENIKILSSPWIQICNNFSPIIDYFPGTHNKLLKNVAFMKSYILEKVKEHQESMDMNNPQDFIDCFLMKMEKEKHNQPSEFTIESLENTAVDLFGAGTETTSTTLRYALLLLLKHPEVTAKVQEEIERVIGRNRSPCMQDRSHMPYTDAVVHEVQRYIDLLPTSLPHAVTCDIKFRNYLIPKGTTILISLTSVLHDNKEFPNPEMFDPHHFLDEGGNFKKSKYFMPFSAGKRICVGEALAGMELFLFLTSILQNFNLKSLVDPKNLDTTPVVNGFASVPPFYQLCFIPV
# Procedure, shortened: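 CYP2C9 activity was measured with a P450-Glo proluciferin substrate. Enzyme–substrate mix was held with compound for 10 min at room temperature, then NADPH regeneration solution was added for 1 h at 37C. Luciferin product was read as luminescence.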
# [6] = qHTS assay to identify small molecule antagonists of the TGF-beta/Smad signaling pathway (AID 1346924; active means well fitted inhibition curve with a large enough effect in the signal ratio in the repeat runs, not every such curve was filed as active; inconclusive means weak or mixed curves; the % refers to the signal ratio); conditions: SBE-bla HEK293T, TGF-beta/Smad reporter, beta-lactamase ratio; activity, negative = inhibition: at 76.8 µM (top of the series) unless noted
# Procedure, shortened: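 SBE-bla HEK 293T cells were plated overnight, then received compound in DMSO plus TGF-beta1 (added as a 0.25 ng/mL solution) and were incubated 5 h at 37 C. Beta-lactamase reporter activity was read after 2 h at room temperature with LiveBLAzer B/G FRET substrate (ex 405, em 460/530 nm).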
# [7] = Caspase-3/7 induction in CHO-K1 cells by small molecules, qHTS assay (AID 1346980); further: potency means the concentration at half of the fitted maximal effect; nearly all actives have a fitted effect of over 15% in size
# Procedure, shortened: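 Wild-type cells were seeded at 1,500 per well and settled 5 hr at 37 C, 5% CO2, then exposed to DMSO-dissolved compounds for 17 hr. Caspase-Glo 3/7 reagent was added, and luminescence was read after 30min at room temperature.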
# [8] = Caspase-3/7 induction in HepG2 cells by small molecules, qHTS cell viability counter screen (AID 1346981); further: potency means the concentration at half of the fitted maximal effect; nearly all actives have a fitted effect of over 30% in size
# Procedure, shortened: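 HepG2, WT, 2,000 cells/well; 5 hr pre-incubation 37 C/5% CO2; compound pin-transferred from DMSO; 16 hr exposure; CellTiter-Fluor, 1 hr; fluorescence read.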
# [9] = target: Nuclear receptor subfamily 1 group I member 2 (Homo sapiens) (UniProt O75469); assay: Human pregnane X receptor (PXR) small molecule agonists, qHTS assay (AID 1346982); further: potency means the concentration at half of the fitted maximal effect; nearly all actives have a fitted effect of over 35% in size
# Sequence of UniProt O75469 (O75469 whole entry, looked up): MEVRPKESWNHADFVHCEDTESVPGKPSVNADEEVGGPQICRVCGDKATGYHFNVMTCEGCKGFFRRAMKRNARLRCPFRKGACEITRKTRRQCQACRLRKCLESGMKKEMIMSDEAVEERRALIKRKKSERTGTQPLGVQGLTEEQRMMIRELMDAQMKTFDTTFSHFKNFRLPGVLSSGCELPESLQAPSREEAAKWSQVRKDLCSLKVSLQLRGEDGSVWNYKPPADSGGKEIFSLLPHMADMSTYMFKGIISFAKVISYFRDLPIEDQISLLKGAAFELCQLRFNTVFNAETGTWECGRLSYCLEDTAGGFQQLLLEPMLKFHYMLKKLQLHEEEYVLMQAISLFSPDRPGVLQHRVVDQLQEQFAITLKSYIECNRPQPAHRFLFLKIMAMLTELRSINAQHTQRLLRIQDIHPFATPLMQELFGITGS
# Procedure, shortened: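 Luciferase signal from ONE-Glo (30 min, room temperature) measured activation of hPXR-driven CYP3A4 reporter expression in PXR-Luc HepG2 cells treated with compounds for 24 hr at 37 C.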
# [10] = Human pregnane X receptor (PXR) small molecule agonists, qHTS cell viability counter screen (AID 1346977); further: nearly all actives have a fitted effect of over 50% in size; further: potency means the concentration at half of the fitted maximal effect; on activity change, negative = cytotoxicity: on the % scale 0 is the no-effect control and ±100 the full control effect
# Procedure, shortened: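 Viability counter screen: CellTiter-Fluor signal in PXR-Luc HepG2 cells, 24hr compound exposure, 37C, 5% CO2.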
# [11] = target: Cytochrome P450 2C19 (Homo sapiens) (UniProt P33261); assay: Cytochrome P450 Family 2 Subfamily C Member 19 (CYP2C19) small molecule antagonists: luciferase reporter qHTS assay (AID 1671197); further: nearly all actives have a fitted effect of over 65% in size; further: potency means the concentration at half of the fitted maximal effect
# Sequence of UniProt P33261 (P33261 whole entry, looked up): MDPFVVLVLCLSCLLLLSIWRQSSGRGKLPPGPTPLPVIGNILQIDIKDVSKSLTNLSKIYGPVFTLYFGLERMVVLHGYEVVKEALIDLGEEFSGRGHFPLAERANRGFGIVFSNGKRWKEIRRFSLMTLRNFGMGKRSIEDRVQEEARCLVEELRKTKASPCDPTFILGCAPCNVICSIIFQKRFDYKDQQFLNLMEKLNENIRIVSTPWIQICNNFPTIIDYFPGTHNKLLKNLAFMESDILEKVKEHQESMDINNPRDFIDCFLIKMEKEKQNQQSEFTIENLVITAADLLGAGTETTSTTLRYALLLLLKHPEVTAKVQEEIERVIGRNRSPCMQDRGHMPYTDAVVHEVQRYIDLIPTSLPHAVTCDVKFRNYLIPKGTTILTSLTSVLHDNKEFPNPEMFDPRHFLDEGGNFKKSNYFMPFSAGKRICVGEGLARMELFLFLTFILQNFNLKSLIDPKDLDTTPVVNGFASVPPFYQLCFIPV
# Procedure, shortened: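 Light output is proportional to CYP2C19 activity: proluciferin substrate is converted to luciferin, then detected by a luciferin detection reagent that also stops the 1 h, 37C NADPH-driven reaction. Ketoconazole serves as positive control.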
# [12] = target: Thyrotropin-releasing hormone receptor (Homo sapiens) (UniProt P34981); assay: qHTS assay to identify small molecule agonists of the thyrotropin-releasing hormone receptor (TRHR) signaling pathway (AID 1346891; calls by dose curve; further: potency means the concentration at half of the fitted maximal effect)
# Sequence of UniProt P34981 (P34981 whole entry, looked up): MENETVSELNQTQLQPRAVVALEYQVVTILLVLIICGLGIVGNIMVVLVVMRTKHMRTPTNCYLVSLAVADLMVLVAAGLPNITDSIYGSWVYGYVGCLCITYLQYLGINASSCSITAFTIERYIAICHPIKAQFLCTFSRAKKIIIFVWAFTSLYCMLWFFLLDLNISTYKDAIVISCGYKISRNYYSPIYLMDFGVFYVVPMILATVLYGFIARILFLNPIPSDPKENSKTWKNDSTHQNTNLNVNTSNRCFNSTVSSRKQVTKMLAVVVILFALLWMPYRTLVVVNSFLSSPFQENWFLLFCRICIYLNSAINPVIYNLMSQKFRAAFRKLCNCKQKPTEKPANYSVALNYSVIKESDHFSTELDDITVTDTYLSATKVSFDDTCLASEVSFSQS
# Procedure, shortened: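 Compounds were tested as agonists at 15 concentrations, in triplicate, on TRHR-Hek293 cells; calcium-sensitive dye fluorescence was recorded for 3 min following addition.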
# Tags describe the fitted curve by direction and shape.
compound,measurement,setting,value
O=Cc1c(Cl)cccc1Cl,Potency,[1],inactive
same,Potency,[2],inactive
CC(=O)Nc1cccc(N)c1,Potency,[1],inactive
same,Potency,[3],inactive
same,Potency,[4],"inconclusive: 72 µM [inhibitor, partial curve]"
same,Potency,[5],"inconclusive: 40.5 µM [inhibitor, partial curve]"
CC/C=C\C/C=C\C/C=C\CCCCCCCC(=O)OC,Potency,[1],"inconclusive: 68.6 µM [rising, partial curve, poor fit]"
same,"activity, negative = inhibition",[6],inconclusive: 22.9%
same,Potency,[3],inconclusive: 68.6 µM [activator]
same,Potency,[7],"inconclusive: 54.5 µM [activator, partial curve]"
same,Potency,[8],inconclusive: 68.6 µM [cytotoxic]
same,Potency,[9],"inconclusive: 68.6 µM [activator, single point]"
Sc1nc2ccccc2s1,Potency,[1],inactive
same,Potency,[2],"inconclusive: 68.6 µM [cytotoxic, single point]"
same,Potency,[7],"inconclusive: 68.6 µM [activator, single point]"
O=C1c2ccccc2C(=O)C1c1ccc2ccccc2n1,Potency,[1],inactive
same,Potency,[10],"inconclusive: 4.81 µM [cytotoxic, full curve]"
same,Potency,[8],active: 6.05 µM
same,Potency,[5],"inconclusive: 2.49 µM [inhibitor, full curve]"
C=C(C)C(=O)OCCC(F)(F)C(F)(F)C(F)(F)C(F)(F)C(F)(F)C(F)(F)F,Potency,[1],inactive
same,Potency,[2],"inconclusive: 61.1 µM [rising, partial curve, poor fit]"
CCCCC(CC)CNCC(CC)CCCC (stereo unspecified),Potency,[1],inactive
same,Potency,[2],inactive
same,Potency,[4],active: 0.199 µM
O=C1CCCCCN1SSN1CCCCCC1=O,Potency,[1],"inconclusive: 43.3 µM [rising, partial curve]"
same,"activity, negative = inhibition",[6],inconclusive: -30.7%
same,Potency,[9],"inconclusive: 61.1 µM [activator, single point]"
same,Potency,[5],"inconclusive: 39.9 µM [inhibitor, partial curve]"
NC(=O)/N=N/C(N)=O,Potency,[1],"inconclusive: 0.193 µM [cytotoxic, single point]"
same,Potency,[10],inactive
Cc1ccc(C=O)cc1C,Potency,[1],inactive
same,Potency,[10],inactive
same,Potency,[4],"inconclusive: 35.6 µM [inhibitor, partial curve, poor fit]"
same,Potency,[11],"inconclusive: 11.2 µM [inhibitor, full curve]"
same,Potency,[5],"inconclusive: 35.6 µM [inhibitor, partial curve, poor fit]"
CCN(CC)c1ccc2c(-c3ccccc3C(=O)O)c3ccc(=[N+](CC)CC)cc-3oc2c1,Potency,[1],"inconclusive: 68.6 µM [rising, single point]"
same,Potency,[12],active: 34.7 µM
same,"activity, negative = inhibition",[6],inconclusive: 3%
same,Potency,[10],active: 4.86 µM
same,Potency,[8],active: 5.45 µM
O=CO,"activity change, negative = cytotoxicity",[1],inactive: 21.2% [at 8.39 µM]
same,"activity change, negative = cytotoxicity",[2],inactive: -2.32% [at 8.39 µM]
OC1(c2ccc(Cl)cc2)CCNCC1,Potency,[1],"inconclusive: 29.8 µM [cytotoxic, single point]"
same,Potency,[3],inactive
same,Potency,[5],"inconclusive: 4.36 µM [inhibitor, full curve, poor fit]"
CC(C)=CCO,Potency,[1],inactive
same,Potency,[12],inactive
same,Potency,[2],"inconclusive: 70.3 µM [cytotoxic, single point]"
same,Potency,[7],"inconclusive: 70.3 µM [activator, single point]"
same,Potency,[4],"inconclusive: 79.6 µM [inhibitor, single point]"
same,Potency,[11],inactive
same,Potency,[5],"inconclusive: 81.6 µM [inhibitor, partial curve, poor fit] and inconclusive: 56.4 µM [inhibitor, partial curve, poor fit]"
O=C(O)c1cc(Cl)cc(Cl)c1O,Potency,[1],inactive
same,Potency,[10],"inconclusive: 43.3 µM [rising, partial curve, poor fit]"
same,Potency,[5],active: 28.3 µM
COC(=O)N/N=C/c1c[n+]([O-])c2ccccc2[n+]1[O-],Potency,[1],"inconclusive: 0.376 µM [rising, full curve, poor fit]"
same,Potency,[12],"inconclusive: 19 µM [activator, single point]"
same,Potency,[4],"inconclusive: 43.6 µM [inhibitor, single point]"
CCC(COC(=O)CCS)(COC(=O)CCS)COC(=O)CCS,Potency,[1],"inconclusive: 6.11 µM [cytotoxic, single point]"
same,Potency,[3],inactive
O=C1c2ccccc2C(=O)c2c1ccc(O)c2O,Potency,[1],inconclusive: 11.9 µM [cytotoxic]
same,Potency,[10],"inconclusive: 33.5 µM [cytotoxic, single point]"
same,Potency,[3],inactive
same,Potency,[8],"inconclusive: 33.5 µM [cytotoxic, single point]"
same,Potency,[4],"inconclusive: 17.4 µM [inhibitor, partial curve]"
same,Potency,[5],"inconclusive: 27.5 µM [inhibitor, partial curve]"
